# Data taken from the supplement of paper PMC10037445.
# “And” between values parts separate entries of the source, which are not always exact repeats. Identical values can stand only once. Over roughly 2,900 compounds, “NF-kB SEAP reporter activity, fold change vs agonist alone” has its median near 0.99; the highest 2% begin near 2.6. This is one part of the list.
# Key:
# RAW-Dual [1] = assay: NF-kB SEAP reporter activity, fold change vs agonist alone; cytotoxicity flag (confluency mask): not cytotoxic; higher = enhanced NF-kB activity
# Summary of the method: (§1)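 RAW-Dual macrophages were seeded in DMEM at 50,000 cells/well in 384-well plates, given 50 nL of library stock by pin tool, and given a PRR agonist 1 h later. Plates were held at 37 °C, 5% CO2 for 20 hours, after which supernatant was read for IRF by QuantiLuc luminescence and for NF-κB by QuantiBlue absorbance at 620 nm. Reporter activity is expressed as fold change over wells that received agonist alone. A well was called cytotoxic when IncuCyte confluency fell below 70% of agonist controls in both mask sets.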
# RAW-Dual [2] = assay: NF-kB SEAP reporter activity, fold change vs agonist alone; higher = enhanced NF-kB activity
# Summary of the method: as §1
# RAW-Dual [3] = assay: NF-kB SEAP reporter activity, fold change vs agonist alone; cytotoxicity flag (confluency mask): cytotoxic (confluency <70% of control); higher = enhanced NF-kB activity
# Summary of the method: as §1
# [4] = agonist: ODN 1826 (TLR9) 0.5 ug/mL
# [5] = agonist: Pam2CSK4 (TLR2/6) 0.1 ug/mL
# [6] = agonist: Pam3CSK4 (TLR2/1) 0.1 ug/mL
# [7] = library stock concentration (final ~1000-fold dilution): 10 mM, cytotoxicity flag (confluency mask): not cytotoxic, agonist: Imiquimod (TLR7) […]
# [8] = library stock concentration (final ~1000-fold dilution): 10 mM, cytotoxicity flag (confluency mask): not cytotoxic, agonist: MPLA (TLR4) […]
# [9] = library stock concentration (final ~1000-fold dilution): 10 mM, cytotoxicity flag (confluency mask): cytotoxic (confluency <70% of control), agonist: Imiquimod (TLR7) […]
# [10] = library stock concentration (final ~1000-fold dilution): 10 mM, cytotoxicity flag (confluency mask): cytotoxic (confluency <70% of control), agonist: MPLA (TLR4) […]
smiles,measurement,setting,value
C[C@@H]1O[C@@H](Oc2c(-c3ccc(O)c(O)c3)oc3cc(O)cc(O)c3c2=O)[C@H](O)[C@H](O)[C@H]1O (library stock concentration (final ~1000-fold dilution): 10 mM),NF-kB SEAP reporter activity,RAW-Dual [1]; agonist: LPS (TLR4) 0.1 ug/mL,0.954
same,NF-kB SEAP reporter activity,RAW-Dual [1]; [4],1.04
same,NF-kB SEAP reporter activity,RAW-Dual [1]; [5],1.02
same,NF-kB SEAP reporter activity,RAW-Dual [1]; [6],1.06
C[C@@H]1O[C@@H](Oc2c(-c3ccc(O)c(O)c3)oc3cc(O)cc(O)c3c2=O)[C@H](O)[C@H](O)[C@H]1O,NF-kB SEAP reporter activity,RAW-Dual [2]; [7],0.959
same,NF-kB SEAP reporter activity,RAW-Dual [2]; [8],1.17
N#Cc1cc(-c2ccnc(Nc3ccc(N4CCOCC4)cc3)n2)ccc1OC1CCOCC1 (library stock concentration (final ~1000-fold dilution): 10 mM),NF-kB SEAP reporter activity,RAW-Dual [1]; [6],3.66
Cc1nn(C)c2nc(NNC(=O)Nc3cc(Cl)nc(Cl)c3)cc(C(C)C)c12,NF-kB SEAP reporter activity,RAW-Dual [2]; [7],0.652
same,NF-kB SEAP reporter activity,RAW-Dual [2]; [8],1.27
Cc1nn(C)c2nc(NNC(=O)Nc3cc(Cl)nc(Cl)c3)cc(C(C)C)c12 (library stock concentration (final ~1000-fold dilution): 10 mM),NF-kB SEAP reporter activity,RAW-Dual [1]; agonist: LPS (TLR4) 0.1 ug/mL,1.5
same,NF-kB SEAP reporter activity,RAW-Dual [1]; [4],1
same,NF-kB SEAP reporter activity,RAW-Dual [1]; [5],0.819
same,NF-kB SEAP reporter activity,RAW-Dual [1]; [6],1.03
O=C(O)Cc1ccccc1Nc1c(Cl)cccc1Cl (library stock concentration (final ~1000-fold dilution): 10 mM),NF-kB SEAP reporter activity,RAW-Dual [1]; agonist: LPS (TLR4) 0.1 ug/mL,0.969 and 0.937
same,NF-kB SEAP reporter activity,RAW-Dual [1]; [4],0.996 and 0.869
same,NF-kB SEAP reporter activity,RAW-Dual [1]; [5],1.02 and 0.988
same,NF-kB SEAP reporter activity,RAW-Dual [1]; [6],0.983 and 0.816
Cc1c(NC(=O)c2ccc(C(C)(C)C)cc2)cccc1-c1cn(C)c(=O)c(Nc2ccc(C(=O)N3CCOCC3)cc2)n1 (library stock concentration (final ~1000-fold dilution): 10 mM),NF-kB SEAP reporter activity,RAW-Dual [1]; agonist: LPS (TLR4) 0.1 ug/mL,1.02
same,NF-kB SEAP reporter activity,RAW-Dual [1]; [4],0.926
same,NF-kB SEAP reporter activity,RAW-Dual [1]; [5],0.924
same,NF-kB SEAP reporter activity,RAW-Dual [1]; [6],0.941
Cc1c(NC(=O)c2ccc(C(C)(C)C)cc2)cccc1-c1cn(C)c(=O)c(Nc2ccc(C(=O)N3CCOCC3)cc2)n1,NF-kB SEAP reporter activity,RAW-Dual [2]; [7],0.961
same,NF-kB SEAP reporter activity,RAW-Dual [2]; [8],0.992
O=c1ncn2nc(Sc3ccc(F)cc3F)ccc2c1-c1c(Cl)cccc1Cl,NF-kB SEAP reporter activity,RAW-Dual [2]; [7],0.75
same,NF-kB SEAP reporter activity,RAW-Dual [2]; [8],0.801
O=c1ncn2nc(Sc3ccc(F)cc3F)ccc2c1-c1c(Cl)cccc1Cl (library stock concentration (final ~1000-fold dilution): 10 mM),NF-kB SEAP reporter activity,RAW-Dual [1]; agonist: LPS (TLR4) 0.1 ug/mL,0.58
same,NF-kB SEAP reporter activity,RAW-Dual [1]; [4],0.753
same,NF-kB SEAP reporter activity,RAW-Dual [1]; [5],0.504
same,NF-kB SEAP reporter activity,RAW-Dual [1]; [6],0.525
CNC(=O)c1ccccc1Oc1nc(Nc2cc(OC)c(OC)c(OC)c2)ncc1Br,NF-kB SEAP reporter activity,RAW-Dual [2]; [7],0.687
same,NF-kB SEAP reporter activity,RAW-Dual [2]; [8],0.745
CNC(=O)c1ccccc1Oc1nc(Nc2cc(OC)c(OC)c(OC)c2)ncc1Br (library stock concentration (final ~1000-fold dilution): 10 mM),NF-kB SEAP reporter activity,RAW-Dual [1]; agonist: LPS (TLR4) 0.1 ug/mL,0.807
same,NF-kB SEAP reporter activity,RAW-Dual [1]; [4],0.615
same,NF-kB SEAP reporter activity,RAW-Dual [1]; [5],0.363
same,NF-kB SEAP reporter activity,RAW-Dual [1]; [6],0.41
O=c1[nH]cc(F)c(=O)[nH]1 (library stock concentration (final ~1000-fold dilution): 10 mM),NF-kB SEAP reporter activity,RAW-Dual [3]; agonist: LPS (TLR4) 0.1 ug/mL,1.39
same,NF-kB SEAP reporter activity,RAW-Dual [3]; [4],1.97
same,NF-kB SEAP reporter activity,RAW-Dual [3]; [5],0.912
same,NF-kB SEAP reporter activity,RAW-Dual [3]; [6],1.21
O=c1[nH]cc(F)c(=O)[nH]1,NF-kB SEAP reporter activity,RAW-Dual [2]; [9],1.83
same,NF-kB SEAP reporter activity,RAW-Dual [2]; [10],1.33
Cl.Nc1c(Br)cc(Br)cc1CNC1CCC(O)CC1 (stereo unspecified) (library stock concentration (final ~1000-fold dilution): 2 mM),NF-kB SEAP reporter activity,RAW-Dual [1]; agonist: LPS (TLR4) 0.1 ug/mL,1.14
same,NF-kB SEAP reporter activity,RAW-Dual [1]; [4],1.03
same,NF-kB SEAP reporter activity,RAW-Dual [1]; [5],1.18
same,NF-kB SEAP reporter activity,RAW-Dual [1]; [6],1.19
Cl.Nc1c(Br)cc(Br)cc1CNC1CCC(O)CC1 (stereo unspecified),NF-kB SEAP reporter activity,"RAW-Dual [2]; library stock concentration (final ~1000-fold dilution): 2 mM, cytotoxicity flag (confluency mask): not cytotoxic, agonist: Imiquimod (TLR7) […]",0.669
same,NF-kB SEAP reporter activity,"RAW-Dual [2]; library stock concentration (final ~1000-fold dilution): 2 mM, cytotoxicity flag (confluency mask): not cytotoxic, agonist: MPLA (TLR4) […]",1.04
CC(=O)Oc1cc(C(F)(F)F)ccc1C(=O)O,NF-kB SEAP reporter activity,RAW-Dual [2]; [7],1.04
same,NF-kB SEAP reporter activity,RAW-Dual [2]; [8],1.01
CC(=O)Oc1cc(C(F)(F)F)ccc1C(=O)O (library stock concentration (final ~1000-fold dilution): 10 mM),NF-kB SEAP reporter activity,RAW-Dual [1]; agonist: LPS (TLR4) 0.1 ug/mL,1.25
same,NF-kB SEAP reporter activity,RAW-Dual [1]; [4],1.01
same,NF-kB SEAP reporter activity,RAW-Dual [1]; [5],1.23
same,NF-kB SEAP reporter activity,RAW-Dual [1]; [6],1.16
O=c1c(O[C@@H]2OC[C@@H](O)[C@H](O)[C@H]2O)c(-c2ccc(O)c(O)c2)oc2cc(O)cc(O)c12,NF-kB SEAP reporter activity,RAW-Dual [2]; [9],0.313
same,NF-kB SEAP reporter activity,RAW-Dual [2]; [10],1.54
O=c1c(O[C@@H]2OC[C@@H](O)[C@H](O)[C@H]2O)c(-c2ccc(O)c(O)c2)oc2cc(O)cc(O)c12 (library stock concentration (final ~1000-fold dilution): 10 mM),NF-kB SEAP reporter activity,RAW-Dual [3]; agonist: LPS (TLR4) 0.1 ug/mL,0.336
same,NF-kB SEAP reporter activity,RAW-Dual [3]; [4],0.322
same,NF-kB SEAP reporter activity,RAW-Dual [3]; [5],0.16
same,NF-kB SEAP reporter activity,RAW-Dual [3]; [6],0.284
CCOC(=O)N1CCC(=C2c3ccc(Cl)cc3CCc3cccnc32)CC1 (library stock concentration (final ~1000-fold dilution): 10 mM),NF-kB SEAP reporter activity,RAW-Dual [3]; agonist: LPS (TLR4) 0.1 ug/mL,0.681
same,NF-kB SEAP reporter activity,RAW-Dual [3]; [4],0.801
same,NF-kB SEAP reporter activity,RAW-Dual [3]; [5],0.551
same,NF-kB SEAP reporter activity,RAW-Dual [3]; [6],0.5
CCOC(=O)N1CCC(=C2c3ccc(Cl)cc3CCc3cccnc32)CC1,NF-kB SEAP reporter activity,RAW-Dual [2]; [9],1.03
same,NF-kB SEAP reporter activity,RAW-Dual [2]; [10],0.903
CC1c2cccc(O)c2C(=O)C2=C(O)C3(O)C(=O)C(C(N)=O)=C(O)C(N(C)C)C3C(O)C21 (stereo unspecified) (library stock concentration (final ~1000-fold dilution): 10 mM),NF-kB SEAP reporter activity,RAW-Dual [1]; agonist: LPS (TLR4) 0.1 ug/mL,1.81
same,NF-kB SEAP reporter activity,RAW-Dual [1]; [4],0.966
same,NF-kB SEAP reporter activity,RAW-Dual [1]; [5],0.896
same,NF-kB SEAP reporter activity,RAW-Dual [1]; [6],0.885
CC1c2cccc(O)c2C(=O)C2=C(O)C3(O)C(=O)C(C(N)=O)=C(O)C(N(C)C)C3C(O)C21 (stereo unspecified),NF-kB SEAP reporter activity,RAW-Dual [2]; [8],1.13
CCc1ccc(NC(=O)Nc2ccccc2)cc1,NF-kB SEAP reporter activity,RAW-Dual [2]; [7],0.892
same,NF-kB SEAP reporter activity,RAW-Dual [2]; [8],1.01
CCc1ccc(NC(=O)Nc2ccccc2)cc1 (library stock concentration (final ~1000-fold dilution): 10 mM),NF-kB SEAP reporter activity,RAW-Dual [1]; agonist: LPS (TLR4) 0.1 ug/mL,1.12
same,NF-kB SEAP reporter activity,RAW-Dual [1]; [4],0.823
same,NF-kB SEAP reporter activity,RAW-Dual [1]; [5],0.702
same,NF-kB SEAP reporter activity,RAW-Dual [1]; [6],0.652
